# From PubChem BioAssay AID1345082 (National Center for Advancing Translational Sciences (NCATS), 2018)
# Hit rate of the full screen: of about 94,000 compounds, about 4,000 (4.3%) were called active. The shares of active, inactive and inconclusive entries below differ from those in the screen. The call rests on the fitted dose curve; in most records, active means well fitted inhibition curve with a large enough effect; inconclusive means small, poorly fitted or top-dose-only effect; inactive means no such curve, though single readings can be large or run the other way. A potency beside an inconclusive call is a rough fit, not a confirmed value.
# Experiment: Cytotoxic Profiling in NIH 3T3 Cell Line of Diverse Libraries Using Quantitative High-Throughput Screening; further: nearly all actives have a fitted effect of over 55% in size
# Details: NIH 3T3 viability, CellTiter-Glo ATP luminescence, 48-72 h; activity change, negative = cytotoxicity: at 96.7 µM (top of the series) unless noted; series mostly up to 96.7 µM
# How it was run: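 Mouse fibroblast NIH 3T3 cells, 400 per well, received compound via pintool and were incubated for 48 or 72 hr prior to CellTiter-Glo ATP luminescence measurement.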
# On the % scale 0 is the no-effect control and ±100 the full control effect; potency means the concentration at half of the fitted maximal effect; tags describe the fitted curve by direction and shape.
Structure (SMILES),Potency,outcome,"activity change, negative = cytotoxicity"
COc1ccc(C(=O)N2CCN(c3cc(-c4ccc(F)cc4)[nH]n3)CC2)cc1OC,"inconclusive: 17.8 µM [inhibitor, full curve]",–,–
O=C(c1ccc(Cl)cc1)N1CCCC(c2nn(-c3ccc(F)cc3)c(=O)[nH]2)C1 (centres undefined),"inconclusive: 39.8 µM [inhibitor, partial curve, poor fit]",–,–
COc1cc(F)ccc1-c1nc(-c2c(C)noc2C)cc2cc(C)oc12,"inconclusive: 56.2 µM [inhibitor, partial curve, poor fit]",–,–
Cc1ccc(-n2nc(C)c([C@@H]3C=C[C@@H](NCc4ccc(N(C)C)cc4)C3)c2C)cc1Cl,active: 7.94 µM,–,–
O=C(NC1CCCCCC1)c1cc2n(n1)CC(c1ccc3c(c1)OCO3)OC2 (centres undefined),"inconclusive: 70.8 µM [inhibitor, single point]",–,–
CC(C)c1nc2ccccc2n1CCNC(=O)Cn1nc2c(cc1=O)CCCCC2,–,inactive,–
C[C@@H]1C(=O)O[C@H]2[C@H]1CC[C@@]1(C)Cc3sc(NC(=O)c4c(F)cccc4F)nc3[C@@H](C)[C@H]21,–,–,inactive: -28.8%
COC(=O)c1ccc2nc(C[C@@H]3C[C@@H](C(C)C)[C@H](CNC4CCN(C(C)=O)CC4)C=C3C)[nH]c2c1,"inconclusive: 50.1 µM [inhibitor, partial curve, poor fit]",–,–
C[S+](=O)([O-])NCc1nnc2n1C(C(=O)NCc1cccc(C(F)(F)F)c1)CC2 (centres undefined),–,–,inactive: -16.3%
Cc1ccc(-c2cccc(CN3CCCC(NC(=O)Cc4ccccn4)C3)c2)cc1Cl (centres undefined),active: 25.1 µM,–,–
CNC(=O)c1onc(-c2ccc(Cl)cc2)c1[C@H](C)O,–,–,inactive: -36.4% [at 174 µM]
O=C(c1ncccc1F)N1CCCn2ccnc2C1c1ccccc1 (centres undefined),–,–,inactive: -7.97%
Cc1ccc2c(C(=O)N3CCN(C(C)C)CC3)cc(NC(=O)C(C)C)cc2n1,"inconclusive: 70.8 µM [inhibitor, single point]",–,–
COC(=O)CNC(=O)C1CCCN(Cc2cccc(-c3ccc(F)cc3F)c2)C1 (centres undefined),"inconclusive: 50.1 µM [inhibitor, partial curve, poor fit]",–,–
COc1ccccc1-c1cccc(CN2CCC(NC(=O)Cc3ccc(C(F)(F)F)cc3)CC2)c1,active: 11.2 µM,–,–
O=C(OCc1ccccc1)N1CCOCC12CCN(Cc1ccccc1)CC2,"inconclusive: 22.4 µM [inhibitor, full curve, poor fit]",–,–
O=c1cc(N2CCOCC2)oc2c(NC3CCOCC3)nccc12,active: 31.6 µM,–,–
CC(C)(C)OC(=O)N1CC(Nc2ccccc2O)C1,–,–,inactive: -24% [at 138 µM]
CCn1cc(S(=O)(=O)N2CCCCC2c2nc(CCOc3ccc(F)cc3)no2)cn1 (centres undefined),"inconclusive: 44.7 µM [inhibitor, partial curve, poor fit]",–,–
O=C(c1ccc(Cl)cc1)N1CC2(CCCN(CC3CCCCC3)C2)Cc2ccccc21 (centres undefined),"inconclusive: 70.8 µM [inhibitor, single point]",–,–
COCCNC(=O)CCCN1C(=O)COc2ccc(C(=O)COc3ccc(F)c(Cl)c3)cc21,"inconclusive: 70.8 µM [inhibitor, partial curve, poor fit]",–,–
O=C1CC2(CCN(Cc3ccccc3)CC2)Oc2ccccc2N1c1ccccc1,–,–,inactive: -24.2%

Structure (SMILES),Potency,outcome,"activity change, negative = cytotoxicity"
COc1ccc(CN2CCCn3nc(C)c(-c4ccnn4C(C)C)c32)cc1O,"inconclusive: 100 µM [inhibitor, partial curve]",–,–
CCc1cccc2c(C(CC(=O)NCc3ccc4c(c3)OCO4)c3ccc(OC)c(OC)c3)c[nH]c12 (centres undefined),"inconclusive: 28.2 µM [inhibitor, partial curve]",–,–
CS(=O)(=O)N1CCC(Cc2ccc(CN3CCCCC3)cc2)CC1,"inconclusive: 44.7 µM [inhibitor, partial curve, poor fit]",–,–
NC(=O)[C@@H]1CN(C(=O)c2cocn2)C[C@H]1COc1ccccc1,–,–,inactive: 0.577%
O=C(C1CCCN([S+](=O)([O-])c2cccs2)C1)N1CCC(c2nc3ccncc3[nH]2)C1 (centres undefined),–,–,inactive: -8.01%
O=C(NCc1ccc(Cl)cc1)c1ccc2ccnn2c1,"inconclusive: 79.4 µM [inhibitor, partial curve, poor fit]",–,–
CCOc1cc(=O)n2c(c1C(=O)Nc1cc(Cl)ccc1C)CCCC2,"inconclusive: 70.8 µM [inhibitor, single point]",–,–
Cc1cccc(N2CCN(C(=O)c3ccc4c(c3)N(C(=O)c3ccccc3)CC4)CC2)c1C,active: 31.6 µM,–,–
Cc1cc(Cl)c2oc(C(=O)N(Cc3c(C)nn(C)c3C)C3CC3)c(C)c2c1,"inconclusive: 11.2 µM [inhibitor, full curve, poor fit]",–,–
COc1cccc(C(=O)Nc2cc(-c3cccnc3)nn2-c2ccccc2)c1,"inconclusive: 50.1 µM [inhibitor, partial curve, poor fit]",–,–
O=C(NCc1ccccc1F)c1cn2cc(-c3ccccc3)sc2n1,–,inactive,–
CCCCOC(=O)c1ccc(N2CC3CCC(C2)N3CC(F)(F)F)nn1,–,–,inactive: -7.67%
COc1ccccc1CN1CCc2nc(C(=O)Nc3ccc(Cl)cc3)oc2CC1,active: 50.1 µM,–,–
OCCc1ccc(Nc2cnc3ccc(-c4cccc(CO)c4)nn23)cc1,"inconclusive: 39.8 µM [inhibitor, partial curve, poor fit]",–,–
COC(=O)[C@H](Cc1ccc(OC)cc1)NC(=O)[C@H]1CN(S(=O)(=O)c2ccccc2)CCN1S(=O)(=O)c1ccccc1,"inconclusive: 50.1 µM [inhibitor, partial curve, poor fit]",–,–
CN1CCN(C(=O)C2CCCN(c3ccnc4ccnn34)C2)CC1 (centres undefined),–,–,inactive: -23.6%
Cc1ccc(C(=O)N2CCCCCCNC(=O)[C@@H]3CCCC[C@@H]32)cn1,"inconclusive: 79.4 µM [inhibitor, single point]",–,–
O=C(Nc1ccccc1)[C@@H]1C[C@@H](c2cccc(C(F)(F)F)c2)N(CC2CCOCC2)C1,"inconclusive: 56.2 µM [inhibitor, partial curve, poor fit]",–,–
COc1ccc(-c2ccc3c(c2)C(=O)N2CC[C@H](NC(=O)CSC)[C@H]2C(=O)N3)c(OC)c1,"inconclusive: 79.4 µM [inhibitor, partial curve, poor fit]",–,–
C[C@@H]1C(=O)O[C@H]2[C@H]1CC[C@@]1(C)Cc3sc(NC(=O)CC(C)(C)C)nc3[C@@H](C)[C@H]21,"inconclusive: 28.2 µM [inhibitor, full curve, poor fit]",–,–
Cc1ccc(C(=O)N2CCC[C@H]2c2nc(-c3ccccc3Cl)no2)cc1C,"inconclusive: 44.7 µM [inhibitor, partial curve, poor fit]",–,–
COc1ccc(C(=O)N2CCC(N3C(=O)c4c(c(C)nn4-c4ccccc4)C3C)CC2)cc1 (centres undefined),"inconclusive: 70.8 µM [inhibitor, partial curve, poor fit]",–,–

Structure (SMILES),Potency,outcome,"activity change, negative = cytotoxicity"
COc1ccccc1CNC1(Cc2cc(COc3ccccc3)on2)COC1,"inconclusive: 89.1 µM [inhibitor, single point]",–,–
c1cc(-c2noc([C@@H]3CCCN3Cc3ncc[nH]3)n2)cc(N2CCOCC2)n1,"inconclusive: 89.1 µM [inhibitor, partial curve, poor fit]",–,–
CCOc1ccc(NC(=O)Nc2c(N3CCCCC3)c(-c3cccc(F)c3)nn2C)cc1,"inconclusive: 70.8 µM [inhibitor, single point]",–,–
CNC(=O)[C@@H]1C[C@@H](Nc2ncnc(Oc3cccnc3C)c2C)CN1C,–,inactive,–
CCOC(=O)C1(Cc2ccccc2Cl)CCNCC1,"inconclusive: 89.1 µM [inhibitor, single point]",–,–
Cc1cccc(CN2CCCN(S(=O)(=O)c3ccccc3)CCC(=O)NCC2)c1,"inconclusive: 39.8 µM [inhibitor, partial curve]",–,–
Cc1ccc(C)c(NC(=O)Cn2ccn3nc(-c4ccccc4)c(CO)c3c2=O)c1,"inconclusive: 28.2 µM [inhibitor, full curve, poor fit]",–,–
FC(F)(F)c1ccc(CN2CC(N3CCc4ccccc43)C2)cc1,"inconclusive: 39.8 µM [inhibitor, single point]",–,–
Cc1c(C(C)NC(=O)CO)cnn1-c1cccc2ccccc12 (centres undefined),–,–,inactive: -5.55%
O=C(NCc1cccc(C(F)(F)F)c1)C1CCN(c2cnn(CC3CC3)c(=O)c2)C1 (centres undefined),"inconclusive: 50.1 µM [inhibitor, partial curve, poor fit]",–,–
COCCOCC(=O)N1CCC2(CC1)CC(N(C1CC1)S(C)(=O)=O)CCO2 (centres undefined),–,–,inactive: -17.7%
O=C(CC1CCCN(c2cn[nH]c(=O)c2)C1)N1CCN(c2ccccn2)CC1 (centres undefined),"inconclusive: 50.1 µM [inhibitor, partial curve, poor fit]",–,–
OC[C@@H]1O[C@H](CNCc2ccc(F)cc2)[C@H](N2CCOCC2)[C@@H]1O,–,–,inactive: -6.47% [at 138 µM]
C[C@H]1CCCN1C(=O)c1nnc(COc2ccc3cccnc3c2)n1-c1cccnc1,"inconclusive: 89.1 µM [inhibitor, partial curve]",–,–
O=C(c1ccccc1Cl)N1CCCC1C(=O)N1CCCC1c1nc2ccncc2[nH]1 (centres undefined),–,–,inactive: -5.52%
COc1ccc(F)cc1-c1ccc(CN2CCCCC2C(=O)NCCc2ccc(Cl)cc2)cc1 (centres undefined),"inconclusive: 44.7 µM [inhibitor, partial curve, poor fit]",–,–
COc1ccc(C(=O)N2C[C@@H]3C[C@H](C2)c2ccc(NC(=O)Nc4cccc(C#N)c4)c(=O)n2C3)cc1,"inconclusive: 20 µM [inhibitor, full curve, poor fit]",–,–
COc1ccccc1Nc1ccnc(N2CCC[C@H]2C(=O)NC(C)C)n1,–,–,inactive: 4.21%
COc1cccc(-c2nccc3c(=O)cc(N(C)C)oc23)c1,active: 70.8 µM,–,–
CN1CCC(OC2CCN(C(=O)c3ccc(Br)cc3)CC2)CC1,–,–,inactive: -21.8%
